{"source": "patent EP4695453A1", "about": "(dated 2026)", "binders": {"B1": {"name": "TY28974 (Fc fusion)", "chain": "EVQLLESGGGEVQPGGSLRLSCAASGFSFSINAMGWYRQAPGKRREFVAAIESGRNTVYAESVKGRFTISRDNAKNTVYLQMSSLRAEDTAVYYCGLLKGNRVVSPSVAYWGQGTLVTVKP[skipping human IgG1 Fc]", "notes": "VHH single domain antibody (CD137-targeting VH domain of INBRX-105) without masking peptide, fused to a human Fc domain; also called parental VHH-Fc antibody; anti-CD137 VHH-Fc antibody"}}, "target": "T1, Recombinant human CD137-His (human, UniProt Q07011 24-186)", "T1 construct": "Coated at 2 ug/mL on the ELISA plate; not shown: His tag", "T1 sequence (Q07011 24-186 limits assumed)": "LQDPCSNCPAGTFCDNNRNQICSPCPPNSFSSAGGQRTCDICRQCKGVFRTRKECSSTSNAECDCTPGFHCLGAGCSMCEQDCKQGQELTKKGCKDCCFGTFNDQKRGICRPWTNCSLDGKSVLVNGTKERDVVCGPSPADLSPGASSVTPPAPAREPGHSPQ", "assay": "ELISA, plate-coated human CD137-His, anti-human IgG (Fc specific)-HRP"}
{"binder": "B1", "values": [{"measurement": "binding result", "value": "binds"}]}
